Assay results from article PMC11828465.
Results are given in words; binding and its absence hold for the method and conditions named. In cells and extracts the contact can be indirect. Some results given as binding are weak or reduced against the parent protein; the word gives no strength. For some of these results: Tags and fused reporters may be left off the sequences shown.

Amino acid sequences for entries named in this document (tags omitted).
UniProt Q8TDX7: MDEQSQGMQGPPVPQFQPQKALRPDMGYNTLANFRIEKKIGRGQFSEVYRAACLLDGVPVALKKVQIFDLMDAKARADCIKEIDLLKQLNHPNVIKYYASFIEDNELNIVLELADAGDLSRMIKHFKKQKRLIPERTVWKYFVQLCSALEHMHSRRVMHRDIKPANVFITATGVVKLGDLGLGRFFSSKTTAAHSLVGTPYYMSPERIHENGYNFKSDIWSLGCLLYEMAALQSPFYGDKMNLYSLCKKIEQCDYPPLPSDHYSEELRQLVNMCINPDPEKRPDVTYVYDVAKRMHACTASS
UniProt Q9Y4G2: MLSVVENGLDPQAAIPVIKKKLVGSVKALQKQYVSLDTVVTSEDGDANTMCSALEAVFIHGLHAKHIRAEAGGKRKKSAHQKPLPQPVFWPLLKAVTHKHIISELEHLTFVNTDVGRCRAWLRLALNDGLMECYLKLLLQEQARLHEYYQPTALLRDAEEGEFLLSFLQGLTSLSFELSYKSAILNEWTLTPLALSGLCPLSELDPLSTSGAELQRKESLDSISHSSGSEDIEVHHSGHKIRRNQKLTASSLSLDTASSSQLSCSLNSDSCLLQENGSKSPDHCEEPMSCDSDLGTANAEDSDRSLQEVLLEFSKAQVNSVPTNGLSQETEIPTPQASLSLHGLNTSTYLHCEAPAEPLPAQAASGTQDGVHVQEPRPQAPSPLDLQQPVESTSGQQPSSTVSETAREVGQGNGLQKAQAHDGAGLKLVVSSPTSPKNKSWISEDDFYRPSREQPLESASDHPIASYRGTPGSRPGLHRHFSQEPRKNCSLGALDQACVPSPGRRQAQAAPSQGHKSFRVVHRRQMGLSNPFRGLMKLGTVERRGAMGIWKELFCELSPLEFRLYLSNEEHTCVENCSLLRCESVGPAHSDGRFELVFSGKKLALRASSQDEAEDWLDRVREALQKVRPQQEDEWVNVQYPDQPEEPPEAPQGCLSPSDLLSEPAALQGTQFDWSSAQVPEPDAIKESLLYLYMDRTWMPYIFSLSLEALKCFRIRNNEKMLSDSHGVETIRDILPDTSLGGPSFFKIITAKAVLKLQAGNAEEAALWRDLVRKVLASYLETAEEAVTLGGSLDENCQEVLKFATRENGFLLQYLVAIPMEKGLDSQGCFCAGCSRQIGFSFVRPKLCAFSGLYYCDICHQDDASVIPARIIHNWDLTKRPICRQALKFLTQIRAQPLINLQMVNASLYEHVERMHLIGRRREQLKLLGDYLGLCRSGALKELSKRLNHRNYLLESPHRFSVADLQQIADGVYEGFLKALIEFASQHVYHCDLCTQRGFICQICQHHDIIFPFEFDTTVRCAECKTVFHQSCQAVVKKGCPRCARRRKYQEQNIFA
UniProt Q9ES74: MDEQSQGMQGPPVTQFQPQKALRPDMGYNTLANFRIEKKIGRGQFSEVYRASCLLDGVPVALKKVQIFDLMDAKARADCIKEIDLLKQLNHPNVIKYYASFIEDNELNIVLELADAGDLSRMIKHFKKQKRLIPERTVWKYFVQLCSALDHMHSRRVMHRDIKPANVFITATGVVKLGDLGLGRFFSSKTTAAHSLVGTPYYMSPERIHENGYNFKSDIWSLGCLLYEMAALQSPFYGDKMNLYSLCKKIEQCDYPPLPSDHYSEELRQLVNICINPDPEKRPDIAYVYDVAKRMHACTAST
UniProt Q96NA2: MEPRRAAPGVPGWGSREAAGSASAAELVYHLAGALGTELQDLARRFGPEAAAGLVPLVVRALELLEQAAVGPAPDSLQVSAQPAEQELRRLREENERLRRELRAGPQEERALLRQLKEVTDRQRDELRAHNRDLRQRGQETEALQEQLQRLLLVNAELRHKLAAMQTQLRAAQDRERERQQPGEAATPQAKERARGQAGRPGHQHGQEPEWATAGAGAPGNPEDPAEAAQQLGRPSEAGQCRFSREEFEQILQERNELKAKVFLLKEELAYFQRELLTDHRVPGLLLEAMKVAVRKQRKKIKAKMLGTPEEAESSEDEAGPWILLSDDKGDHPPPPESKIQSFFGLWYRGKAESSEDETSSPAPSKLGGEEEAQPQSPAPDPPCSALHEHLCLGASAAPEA

Legend:
RlucII–Rab7A^S72A = RlucII–Rab7A^S72A (UniProt P51149); test: FRET or BRET; BRET titration curves in live wild-type HEK293 cells: constant amount of the RlucII fusion, increasing amounts of the GFP10 fusion; 48 h post transfection; cells in PBS, coelenterazine 400a 5 µM, read after 2 min at RT; BRET50 from BRETnet against GFP10 fluorescence/RlucII …
RlucII–Rab1a = RlucII–Rab1a (UniProt P62820); test: as above
RlucII–Rab7A wild-type [1] = target: RlucII–Rab7A wild-type (UniProt P51149); test: as above
RlucII–Rab7A^C205,207S = RlucII–Rab7A^C205,207S (UniProt P51149); test: as above
CLN6–RlucII = target: T1, CLN6–RlucII (UniProt Q3U466); test: as above
T1 sequence: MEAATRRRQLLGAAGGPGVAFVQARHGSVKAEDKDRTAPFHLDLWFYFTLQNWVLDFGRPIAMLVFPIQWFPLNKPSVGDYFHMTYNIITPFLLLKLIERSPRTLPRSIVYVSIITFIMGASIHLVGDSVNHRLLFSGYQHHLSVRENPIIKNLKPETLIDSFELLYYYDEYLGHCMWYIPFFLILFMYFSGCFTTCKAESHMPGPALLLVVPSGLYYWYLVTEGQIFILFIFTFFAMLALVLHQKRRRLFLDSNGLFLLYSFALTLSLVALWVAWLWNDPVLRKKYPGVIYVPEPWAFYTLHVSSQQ

[2] = target: endogenous NEK7 (human (endogenous; cell line not named, all cell lines of the paper are human)) (UniProt Q8TDX7); test: co-IP; co-immunoprecipitation with antibodies to endogenous NEK7 and Rab7A, each in turn
[3] = target: endogenous Rab7A (human (endogenous; cell line not named, all cell lines of the paper are human)) (UniProt P51149); test: as above
RlucII–Rab7A wild-type [4] = target: RlucII–Rab7A wild-type (UniProt P51149); test: FRET or BRET; BRET titration curves in live HeLa cells, wild-type and TBK1^KO: constant RlucII–Rab7A, increasing Vps26A–GFP10; 48 h post transfection
RlucII–Rab7A wild-type [5] = target: RlucII–Rab7A wild-type (UniProt P51149); test: FRET or BRET; BRET titration curves in live HEK293 cells, wild-type and TAK1^KO: constant RlucII–Rab7A, increasing Vps26A–GFP10; 48 h post transfection
RlucII–Rab7A^Y183F = RlucII–Rab7A^Y183F (UniProt P51149); test: FRET or BRET; BRET titration curves in live wild-type HEK293 cells: constant amount of the RlucII fusion, increasing amounts of the GFP10 fusion; 48 h post transfection; cells in PBS, coelenterazine 400a 5 µM, read after 2 min at RT; BRET50 from BRETnet against GFP10 fluorescence/RlucII …
RlucII–Rab7A^Y183E = RlucII–Rab7A^Y183E (UniProt P51149); test: as above

Q: For “PLEKHM1–GFP10 (from UniProt Q9Y4G2 1-1056)”, which binding (RlucII–Rab7A^S72A) is on record?
A: Its binding is “binds”.

Q: And the binding (RlucII–Rab1a)?
A: The binding was “no binding”.

Q: And the binding (RlucII–Rab7A wild-type [1])?
A: Its binding is “binds”.

Q: “GFP10–NEK7 (from UniProt Q9ES74 1-302) (enzyme)” was tested. Which binding (RlucII–Rab7A^C205,207S) did it give?
A: The binding was “no binding”.

Q: And the binding (CLN6–RlucII)?
A: The binding was “no binding”.

Q: How did the binding (RlucII–Rab1a) turn out when RILP–GFP10 (from UniProt Q96NA2 1-401) was run?
A: The binding was “no binding”.

Q: “endogenous Rab7A (from UniProt P51149 1-207)” was tested. Which binding [2] did it give?
A: The binding was “no binding”.

Q: With “endogenous NEK7 (from UniProt Q8TDX7 1-302) (enzyme)” as the substance, how does the binding [3] read?
A: The binding was “no binding”.

Q: Which binding (RlucII–Rab7A wild-type [4]) does the source give for “Vps26A–GFP10 (from UniProt O75436 1-327)” here?
A: Its binding is “binds”.

Q: What about the binding (RlucII–Rab7A wild-type [5]) of the same substance?
A: Its binding is “binds”.

Q: What about the binding (RlucII–Rab7A^Y183F) of the same substance?
A: The binding was “binds”.

Q: What about the binding (RlucII–Rab1a) of the same substance?
A: The binding was “no binding”.

Q: What about the binding (RlucII–Rab7A^Y183E) of the same substance?
A: The binding was “binds”.
